# Source: PMC4336329 (PLoS ONE, 2015)
# Hit rate of the full screen: of about 310,000 compounds, about 2,200 (0.71%) showed an effect of 50% or more. The effect is printed as a negative number. The list shows a part of the results.
# Molecular target: human ether-à-go-go-related gene (hERG) potassium channel (human, UniProt Q12809)
# Assay: primary screen, population patch clamp on CHO cells stably expressing hERG
# human ether-à-go-go-related gene (hERG) potassium channel, sequence (Q12809 whole entry, looked up): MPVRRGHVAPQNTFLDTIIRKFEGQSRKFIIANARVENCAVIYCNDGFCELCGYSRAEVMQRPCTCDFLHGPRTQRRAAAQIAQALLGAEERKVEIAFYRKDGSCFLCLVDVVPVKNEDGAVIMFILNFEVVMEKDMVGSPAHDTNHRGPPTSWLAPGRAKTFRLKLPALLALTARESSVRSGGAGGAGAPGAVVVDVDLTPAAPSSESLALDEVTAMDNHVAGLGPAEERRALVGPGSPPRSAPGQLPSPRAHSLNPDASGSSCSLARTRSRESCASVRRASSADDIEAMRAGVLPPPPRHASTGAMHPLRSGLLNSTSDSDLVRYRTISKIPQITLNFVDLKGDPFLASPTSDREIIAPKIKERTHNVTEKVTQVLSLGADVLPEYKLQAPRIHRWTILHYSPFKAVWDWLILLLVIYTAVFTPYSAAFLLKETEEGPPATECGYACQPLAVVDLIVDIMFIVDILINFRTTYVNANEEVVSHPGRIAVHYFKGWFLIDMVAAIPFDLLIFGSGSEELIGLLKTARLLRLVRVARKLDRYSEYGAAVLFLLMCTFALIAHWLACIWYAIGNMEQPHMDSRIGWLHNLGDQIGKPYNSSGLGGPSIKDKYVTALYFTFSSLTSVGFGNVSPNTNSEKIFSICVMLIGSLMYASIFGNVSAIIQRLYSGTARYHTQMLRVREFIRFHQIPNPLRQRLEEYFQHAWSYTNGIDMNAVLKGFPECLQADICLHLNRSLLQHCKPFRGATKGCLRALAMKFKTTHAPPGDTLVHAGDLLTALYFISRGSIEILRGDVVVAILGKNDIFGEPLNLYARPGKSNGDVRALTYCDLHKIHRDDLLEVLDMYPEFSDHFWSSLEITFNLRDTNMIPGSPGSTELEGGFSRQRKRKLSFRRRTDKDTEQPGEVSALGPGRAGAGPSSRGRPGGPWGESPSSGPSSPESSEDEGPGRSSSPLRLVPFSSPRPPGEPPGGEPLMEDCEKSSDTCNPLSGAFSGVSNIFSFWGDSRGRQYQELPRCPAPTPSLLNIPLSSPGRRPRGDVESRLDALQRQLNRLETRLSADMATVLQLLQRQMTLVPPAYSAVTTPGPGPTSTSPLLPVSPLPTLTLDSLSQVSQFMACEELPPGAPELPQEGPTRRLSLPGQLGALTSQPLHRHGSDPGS
row,SMILES,"hERG current change (%, negative = inhibition) at 1uM [%]"
1,CCN(CC)CCCNC(=O)C1c2ccccc2C(=O)N1Cc1ccc(C)cc1 (stereo not drawn),1.27
2,Cc1ccc(Nc2nc(=O)[nH]nc2C)cc1,-6.67
3,COc1ccc(C(=S)N2CCCC2)cc1OC,6.13
4,Cn1c(CC(=O)NN)c(Sc2ccccc2)c2ccccc21,5.65
5,N#CCCN(Cc1cccs1)C(=O)c1ccc(Cl)cc1,6.2
6,O=C(CSc1ccc(-c2ccco2)nn1)NCCc1ccccc1,-2.33
7,O=S(=O)(Nc1ccc2c(c1)OCO2)c1ccccc1,-4.87
8,Cc1cccc(C)c1NC(=O)COC(=O)c1cc(-c2cccnc2)nc2ccccc12,5.88
9,CCC(=O)Nc1ccc(C(=O)COC(=O)Cc2ccsc2)cc1,-7.02
10,Cc1cc(C)cc(NC(=O)C2CCCN2S(=O)(=O)c2ccc3c(c2)C(C)(C)C(=O)N3C)c1 (stereo not drawn),-0.001
11,Cc1c(C(=O)Nc2c(F)cccc2F)sc2ncnc(N3CCN(c4ccccc4)CC3)c12,4.01
12,CCN(C(=O)CSc1nnc(-c2ccccc2)n1C)C1CCS(=O)(=O)C1 (stereo not drawn),1.6
13,O=C(CC(=O)NCc1ccc(Cl)cc1)NCc1ccc(Cl)cc1,8.8
14,Cc1ccc(S(=O)(=O)N2CCN(c3ccc(S(=O)(=O)N4CCOCC4)cn3)CC2)cc1,5.66
15,COc1ccc(C2(C)NC(=O)N(CC(=O)Nc3ccc(Br)c(C)c3)C2=O)cc1OC (stereo not drawn),12.8
16,Cc1noc(C)c1C(=O)OCC(=O)c1c(N)n(CC(C)C)c(=O)n(C)c1=O,5.09
17,CN1CCN(c2ccc(CNC(=O)c3ccco3)cc2)CC1,15
18,COc1ccc(S(=O)(=O)NCCN2CCOCC2)c2ccccc12,10.8
19,CCOC(=O)C1(CCOC)CCN(Cc2cc3ccccc3s2)CC1,5.86
20,Cc1ccc(C(=O)Nc2cccc(C(=O)NCc3ccco3)c2)cc1,5.59
21,O=C(NNC(=O)c1cnccc1C(F)(F)F)c1ccc(Cl)cc1,12.8
22,S=c1[nH]nc2n1CCCN2,13.7
23,O=C(Nc1cccnc1)Nc1ccc(Cl)cc1Cl,17.5

row,SMILES,"hERG current change (%, negative = inhibition) at 1uM [%]"
1,CCOC(=O)C1(CCOC)CCN(Cc2ccc3nonc3c2)CC1,11
2,Cc1ccc2[nH]c3nc(NN)nnc3c2c1,12.2
3,N#C/C(=C(/O)COC(=O)CCc1ccc(S(=O)(=O)N2CCOCC2)cc1)c1nc2ccccc2[nH]1,8.46
4,CCOC(=O)N1CCN(C(=O)Cc2ccc(C)cc2)CC1,12.7
5,CCCCc1nc(SCC(=O)Nc2nnc(CCCC)s2)n[nH]1,10.1
6,Cc1ccc(C(=O)N/C(=C\c2cccs2)C(=O)NCc2cccnc2)cc1,-31.8
7,CC(=O)c1ccc(OCCCC(=O)N(CCC2=CCCCC2)c2c(N)n(Cc3ccccc3)c(=O)[nH]c2=O)cc1,11.5
8,CC(O)CNCCCOc1cccc(Oc2ccccc2)c1.O=C(O)C(=O)O (stereo not drawn),5.74
9,COc1ccc(C2C(C#N)=C(N)Oc3cc(N)ccc32)cc1OC (stereo not drawn),-0.988
10,Cl.c1ccc2c3c(c(CN4CCCCC4)cc2c1)COC3,1.98
11,CN(C)[C@H]1N(C(=O)c2ccc(Br)cc2)N=C2c3ccccc3S(=O)(=O)N21,-14.5
12,COc1ccc(S(=O)(=O)Nc2nnc(C)s2)cc1,-4.85
13,CC(=O)c1ccccc1-c1csc2ncnc(Sc3nnnn3C)c12,9.95
14,CC(C(=O)Nc1ccc2c(c1)OCCO2)N1Cc2ccccc2C1=O (stereo not drawn),8.41
15,CC1CC(C)(C)NC(=S)N1CCCC(=O)Nc1ccccc1F (stereo not drawn),9.56
16,CCCCC(=O)Nc1ccc(NC(=O)c2cc(OC)c(OC)c(OC)c2)cn1,13.4
17,Nc1nonc1-n1nnc(C(=O)N/N=C/c2ccccc2F)c1CN1CCOCC1,5.6
18,Cc1ccc(C2(C)NC(=O)N(CC(=O)N3c4ccccc4NC(=O)CC3C)C2=O)cc1 (stereo not drawn),14.8
19,COc1cc2c(cc1OC)CN(C(=O)Cc1ccccc1)CC2,2.34
20,NS(=O)(=O)c1ccc(NC(=O)COC(=O)c2ccc3c(c2)OCCO3)cc1,13.4
21,O=C(COc1ccccc1C(=O)Nc1ccccc1)c1ccc(Br)cc1,10.3
22,CCn1c2ccccc2c2cc(/C=N/n3cnnc3)ccc21,13.5
23,COc1ccc(Cl)cc1S(=O)(=O)N1CCN=C1c1ccccc1,1.46

row,SMILES,"hERG current change (%, negative = inhibition) at 1uM [%]"
1,CC(=O)NS(=O)(=O)c1ccc(NC(=S)NC(=O)C(C)C)cc1,7.38
2,Cn1c(CCC(=O)OCC(=O)NCC(F)(F)F)nc(=O)c2ccccc21,4
3,CC1=CC(C)(C)N2C(=O)C3(SCC(=O)N3c3ccc(F)cc3)c3cc(C)cc1c32 (stereo not drawn),-3.08
4,O=C(CN(C(=O)c1csnn1)c1ccc(F)c(Cl)c1)NC1CCCCC1,18.3
5,Cc1ncn(-c2ccccc2)c1-c1ccccc1,4.67
6,NC1C2CN3CCN(C2)CC1(c1ccccc1)C3 (stereo not drawn),13.9
7,CC(=O)Nc1ccc(C(=O)COC(=O)c2cccs2)c(F)c1,1.77
8,O=C(c1ccccc1)N1CCc2[nH]nc(-c3ccccc3)c2C1,7.34
9,Cc1cc(NCc2ccccn2)n2ncc(-c3ccccc3)c2n1,8.43
10,Cc1cccc(NS(=O)(=O)c2cccc([N+](=O)[O-])c2)n1,13.7
11,CN(Cc1nccn1C)C(=O)c1ccc(OC2CCN(CCc3ccccc3)CC2)cc1,-9.16
12,Cc1cc(C)cc(NC(=O)N2CCc3ccccc3C2)c1,16.6
13,O=C(Cn1ncc2c([nH]c3ccccc32)c1=O)NCCCN1CCN(c2ccccc2)CC1,-3
14,Cc1cc(C)cc(NC(=O)c2ccc(CSc3nnc(C)s3)cc2)c1,8.08
15,O=c1c(CN2CCN(c3ccccn3)CC2)coc2ccccc12,-6.81
16,CCn1ncc(CN2CCCC(C(=O)Nc3cccc(-c4cc5ccccc5[nH]4)c3)C2)c1C (stereo not drawn),2.83
17,O=C(Cc1c[nH]c2ccccc12)Nc1ccc(N2CCOCC2)cc1,8.78
18,O=C(O)/C=C/C(=O)N1CCN(c2cccc(Cl)c2)CC1,7.47
19,CC1CN(C(=O)C2CCCCC2)C(C)CN1C(=O)C1CCCCC1 (stereo not drawn),17.1
20,O=c1oc2ccccc2cc1-c1nc(-c2ccccc2)no1,-6.57
21,Cc1ccc(OCC(=O)NNC(=S)NC(=O)C(C)(C)C)c(Br)c1,11.6
22,COC(=O)c1c(C)[nH]c(C)c1-c1ccc(C)cc1,12.1
23,COc1ccc2c(c1)c(=O)oc1c(C)c(OCc3ccc(C(=O)O)cc3)ccc12,11.2

row,SMILES,"hERG current change (%, negative = inhibition) at 1uM [%]"
1,O=C(CN(C(=O)CNC(=O)c1cccs1)c1cccc(F)c1)NC1CCCCC1,6.83
2,O=C(OCCCOc1ccc(F)cc1)c1ccc(O)cc1O,13.4
3,CN(C)CCNc1oc(COc2cccc(Cl)c2)nc1C#N,-4.66
4,O=C(NCCc1ccc(Cl)cc1)c1ccc(OCC2CCCO2)cc1 (stereo not drawn),15.4
5,COc1ccc(CCC(C)NCCc2ccc(Cl)cc2Cl)cc1 (stereo not drawn),-50.1
6,Cc1ccc(SCc2ccc(C(=O)Nc3cccc([N+](=O)[O-])c3C)cc2)cc1,12
7,COc1ccc(CCNCC2C(Oc3ccc(Cl)cc3)C(=O)N2c2ccccc2C)cc1OC.Cl (stereo not drawn),-6.44
8,COc1ccc(CN(C)C(C)C(=O)N(C)CC(=O)Nc2ccc(C)cc2)cc1F (stereo not drawn),-16.3
9,O=C(NNc1ncccc1Cl)c1c(Cl)cccc1Cl,10.9
10,COc1ccc(C(=O)O/N=C(/c2ccccc2)c2ccncc2)cc1OC,12.8
11,CC(C)c1ccc(OCC(=O)N(Cc2ccccc2)c2ccccn2)cc1,12.5
12,CCOc1ccc(C(CC(=O)O)NC(=O)COc2ccc3ccccc3c2)cc1OC (stereo not drawn),16.4
13,Cc1cc(C)n2nc(-c3ccco3)nc2n1,6.62
14,COc1ccc(CCNS(=O)(=O)c2ccc(-n3cnnn3)cc2)cc1OC,-6.7
15,C=CCN(c1ccc(C(=O)Nc2ccc3c(c2)OCO3)cc1)S(C)(=O)=O,6.65
16,CSCCC(NS(=O)(=O)c1ccc(C)cc1)C(=O)N1CCCCCCC1 (stereo not drawn),8.8
17,CC(=O)N1CCc2cc(S(=O)(=O)NCCC(=O)Nc3cccc(C)c3C)ccc21,2.01
18,CN(c1cccc(NC(=O)CN2C(=O)c3ccccc3S2(=O)=O)c1)S(C)(=O)=O,-11.8
19,Cc1ccc(-c2[nH]ncc2/C=N/n2c(COc3ccccc3C)nc3ccccc3c2=O)cc1,5.21
20,O=C(CC1Nc2ccccc2NC1=O)c1ccccc1 (stereo not drawn),6.1
21,O=S(=O)(c1ccc(Cl)cc1)N1CCN(C(=S)Nc2ccccc2F)CC1,5.05
